Laboratory results reported in PubChem BioAssay AID1346428 (National Center for Advancing Translational Sciences (NCATS), 2018).
In all, about 48,000 compounds went through this assay and about 1,200 (2.5%) were called active. Roughly 2% stayed inconclusive and do not appear here.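 The calls were made as follows: active = activation of at least 60% and not above a set upper limit (about 1 call in 100 departs from these limits); inconclusive = activation of 40% to 60%, or above that upper limit; inactive = activation under 40%.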 This is one part of the list.

Molecular target: Probable G-protein coupled receptor 32 (Homo sapiens) (UniProt O75388)
Test: qHTS for Agonists of Human Resolvin D1 Receptor DRV1
Conditions: CHO-K1 GPR32 beta-arrestin PathHunter luminescence, 90 min; at 76.9 µM; active compounds read high; zero percent set by DMSO-only wells
Method in brief: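 PathHunter enzyme-fragment complementation, CHO-K1 GPR32 stable line; 2,500 cells/well, overnight attach; cpd 90 min 37 °C 5% CO2; detection reagent 1 h RT; chemiluminescence. DMSO = EC0.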

Sequence of UniProt O75388 (O75388 whole entry, looked up): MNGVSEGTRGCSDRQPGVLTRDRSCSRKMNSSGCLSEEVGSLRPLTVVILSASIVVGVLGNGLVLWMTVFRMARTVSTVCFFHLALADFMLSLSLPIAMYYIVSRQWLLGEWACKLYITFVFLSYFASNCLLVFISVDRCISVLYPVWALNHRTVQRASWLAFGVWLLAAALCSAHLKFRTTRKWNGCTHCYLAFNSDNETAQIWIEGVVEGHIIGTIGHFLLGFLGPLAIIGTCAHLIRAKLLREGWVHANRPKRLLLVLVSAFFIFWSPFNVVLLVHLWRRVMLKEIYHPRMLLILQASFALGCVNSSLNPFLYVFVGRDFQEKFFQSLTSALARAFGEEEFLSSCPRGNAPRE

activation, inactive:
Cc1ccc(NC(=O)CSc2nnc3nc(C)cc(C)n23)cc1 16.1%, Cc1ccc(-n2ncc(C(=O)NCCCN3CCCCC3)c2C2CCN(C(=O)OC(C)(C)C)CC2)c(C)c1 8.83%, CC(C(=O)NCc1ccccc1Cl)n1ccc2cc(S(=O)(=O)N3CCCCC3)ccc21 (stereo not given) 3.37%, CCc1cccc(C)c1NC(=O)CCCn1c(=O)c2cccn2c2cccnc21 -18%, CCOC(=O)c1ccccc1NC(=O)NC(C)c1c(-n2cccc2)sc(C)c1C (stereo not given) -26.2%, Cc1ccc(C)c(NC(=O)CN2C(=O)c3cccc4cccc2c34)c1 -2.24%, CCN(CC)C(=O)c1sc(NC(=O)c2nc3ncccn3n2)c(C(=O)OC)c1C 14.3%, O=C(CSc1nc(-c2cccc(Cl)c2)nc2cc(=O)[nH]n12)Nc1ccccc1 2.18%, O=c1c2ccccc2n2c(-c3ccccc3O)nnc2n1Cc1ccc(F)cc1 4.02%, Cc1cccc(Cn2ccn(Cc3ccc(Cl)cc3)c(=O)c2=O)c1 -4.24%, COc1cccc(CNC(=O)CN2C(=O)CSc3c2c(C)nn3-c2ccccc2)c1OC 17.9%, Cc1cccc(C)c1NC(=O)c1nc(S(C)(=O)=O)ncc1N(Cc1ccc(F)cc1)Cc1ccco1 -19.4%, Cc1ccc(Cl)cc1-n1c(=O)c2sc3ccccc3c2n(CC(=O)NC2CCCCC2)c1=O -3.17%, COc1ccc(CNC(=O)Cn2c(=O)oc3cc(S(=O)(=O)N4CCC(C)CC4)ccc32)cc1 4.42%, CCOC(=O)c1cnc2c(C)cc(C)cc2c1NCCc1ccc(OC)c(OC)c1 11.1%, Cc1ccc2c(CC(=O)NCc3ccccc3)coc2c1C -15%, COc1ccc(C(=O)N(Cc2ccc(N(C)C)cc2)Cc2ccco2)cc1Cl -8.46%, Cc1cc(-c2ccc(C)c(S(=O)(=O)Nc3ccccc3C(F)(F)F)c2)on1 4.45%, O=c1c2sc3ccccc3c2n(Cc2ccccc2Cl)c(=O)n1Cc1ccccc1 -2.99%, COC(=O)C(C)(N)Cc1ccc(O)cc1 (stereo not given) -2.35%, Cc1ccc(C)n1-c1c(C(=O)NCC(C)c2ccccc2)sc2ncccc12 (stereo not given) -2.69%, O=C(NCCc1csc(-c2ccc(C(F)(F)F)cc2)n1)C(=O)Nc1cc(F)ccc1F 3.09%, COc1ccc(NC(=O)CCCn2c(=O)c3cccn3c3ccccc32)c(OC)c1 -20.8%, COc1ccc(C(=O)Oc2c(Sc3ccc(Cl)cc3)c(C)nn2C(C)(C)C)cc1OC -18.8%, CCc1ccccc1NC(=O)Cn1c(=O)n(CCCS(=O)(=O)C2CCCCC2)c(=O)c2ccccc21 -1.84%, CCCCN(C)CCNC(=O)C1CCCN(S(=O)(=O)c2ccc3c(c2)oc(=O)n3C)C1 (stereo not given) -34.2%, CCOC(=O)c1c(C)[nH]c(CCC(=O)NCCCN2CCN(c3cc(Cl)ccc3C)CC2)c1C 14.2%, Cc1c(CCNC(=O)Cc2ccc(F)cc2)sc2nc(-c3ccc(F)cc3)nn12 -23.8%, O=C(Cn1c(=O)c2ccccc2n(CC(=O)Nc2ccc(Cl)cc2)c1=O)NCCc1ccccc1 -5.68%, CCOc1ccc(C(=O)Nc2cccc(OCc3cc(=O)n4ccccc4n3)c2)cc1 -4.18%, Cc1cccc(CNS(=O)(=O)c2csc(C(N)=O)c2)c1 3.74%, O=C1C(c2cccc(Br)c2)N(CCc2ccccc2)C(=O)CN1C1CCCCC1 (stereo not given) -5.19%, CCOc1cccc(CNCCNC(=O)c2nonc2N)c1 -5.93%, Cc1ccccc1NS(=O)(=O)c1nnc(NC(=O)c2ccc(Cl)cc2)s1 19%, CCOC(=O)c1[nH]c(C)c(CCC(=O)Nc2ccc(C(C)=O)cc2)c1C -0.783%, O=S(=O)(Nc1cccc(-c2ccc(N3CCCCCC3)nn2)c1)c1ccc(F)cc1 -8.76%, Cc1ccc(-n2nc3ccc(NC(=O)c4oc5ccc(C)cc5c4C)cc3n2)cc1 -15.5%, CCOc1ccc(OCC(=O)NCCS(=O)(=O)N2CCN(c3ccc(F)cc3)CC2)cc1 -12.4%, CCc1cccc(C)c1NS(=O)(=O)c1cc(-c2cc(C)no2)ccc1C -24.1%, Cc1ccc(-n2nnc(-c3nsc(NC(=O)c4ccccc4)n3)c2C)cc1 -1.26%, O=C(CCC1CCCC1)N1CCc2c([nH]c3ccccc23)C1c1ccc(Cl)cc1 (stereo not given) -34.2%, O=C1OC(=O)C2C3CCC(O3)C12 (stereo not given) -7.26%, CCOC(=O)n1ccn(C)c1=S 27.1%, CCN(C(=O)Cn1ncc2c(=O)oc3ccc(C)cc3c21)c1cc(OC)ccc1OC -21.9%, CCCOc1ccccc1C(=O)N1CCCCC1CCN1CCOCC1 (stereo not given) -3.38%, O=C(Nc1ccccc1F)c1nc(SCc2ccc(F)cc2)ncc1Cl -4.82%, CC1CCc2noc(NC(=O)c3ccccc3[N+](=O)[O-])c2C1 (stereo not given) -19.8%, CCOC(=O)C1CCCN(S(=O)(=O)c2ccc(N3CCCCS3(=O)=O)cc2)C1 (stereo not given) -11%, Cc1cc(C(F)F)n2nc(C(=O)Nc3cc(Cl)ccc3C)nc2n1 25.2%, CN1CCN(C(=O)c2ccc3c(c2)N(Cc2cccc(Cl)c2)C(=O)c2ccccc2S3(=O)=O)CC1 -22.3%, CCCN1C(=O)C(O)(CC(=O)c2ccc(OC)c(OC)c2)c2ccccc21 (stereo not given) -6.19%, O=C(Nc1ccc(C(F)(F)F)cc1)c1cc(S(=O)(=O)NC2CCCCC2)ccc1F 2.69%, COc1ccccc1CNC(=O)C1CCN(S(=O)(=O)c2c(C)noc2/C=C/c2c(C)cc(C)cc2C)CC1 -6.01%, O=C(Nc1ccc2nc(SCCOc3ccccc3)sc2c1)c1cccs1 -2.84%, Cc1coc2c(C)c3oc(=O)c(CC(=O)NCc4ccccc4)c(C)c3cc12 -12.8%
